# Results: PMC4336329 (PLoS ONE, 2015)
# About 14,000 (4.5%) of roughly 310,000 compounds showed an effect of 50% or more. The effect is printed as a negative number. Some of the results follow. Where a SMILES comes first, the peptide text is derived from it. [ ]: non-standard residue; d: D form. The star is where a group is joined. Phe(4-Me) = Cc1ccc(C[CH](N)C(=O)O)cc1; Bz = O=C(c1ccccc1)*
# Biological target: human ether-à-go-go-related gene (hERG) potassium channel (human, UniProt Q12809)
# Test: primary screen, population patch clamp on CHO cells stably expressing hERG
# 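Note: peak tail current of the secondary pulse compared with the same well before compound.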
# Chain of human ether-à-go-go-related gene (hERG) potassium channel (Q12809 whole entry, looked up): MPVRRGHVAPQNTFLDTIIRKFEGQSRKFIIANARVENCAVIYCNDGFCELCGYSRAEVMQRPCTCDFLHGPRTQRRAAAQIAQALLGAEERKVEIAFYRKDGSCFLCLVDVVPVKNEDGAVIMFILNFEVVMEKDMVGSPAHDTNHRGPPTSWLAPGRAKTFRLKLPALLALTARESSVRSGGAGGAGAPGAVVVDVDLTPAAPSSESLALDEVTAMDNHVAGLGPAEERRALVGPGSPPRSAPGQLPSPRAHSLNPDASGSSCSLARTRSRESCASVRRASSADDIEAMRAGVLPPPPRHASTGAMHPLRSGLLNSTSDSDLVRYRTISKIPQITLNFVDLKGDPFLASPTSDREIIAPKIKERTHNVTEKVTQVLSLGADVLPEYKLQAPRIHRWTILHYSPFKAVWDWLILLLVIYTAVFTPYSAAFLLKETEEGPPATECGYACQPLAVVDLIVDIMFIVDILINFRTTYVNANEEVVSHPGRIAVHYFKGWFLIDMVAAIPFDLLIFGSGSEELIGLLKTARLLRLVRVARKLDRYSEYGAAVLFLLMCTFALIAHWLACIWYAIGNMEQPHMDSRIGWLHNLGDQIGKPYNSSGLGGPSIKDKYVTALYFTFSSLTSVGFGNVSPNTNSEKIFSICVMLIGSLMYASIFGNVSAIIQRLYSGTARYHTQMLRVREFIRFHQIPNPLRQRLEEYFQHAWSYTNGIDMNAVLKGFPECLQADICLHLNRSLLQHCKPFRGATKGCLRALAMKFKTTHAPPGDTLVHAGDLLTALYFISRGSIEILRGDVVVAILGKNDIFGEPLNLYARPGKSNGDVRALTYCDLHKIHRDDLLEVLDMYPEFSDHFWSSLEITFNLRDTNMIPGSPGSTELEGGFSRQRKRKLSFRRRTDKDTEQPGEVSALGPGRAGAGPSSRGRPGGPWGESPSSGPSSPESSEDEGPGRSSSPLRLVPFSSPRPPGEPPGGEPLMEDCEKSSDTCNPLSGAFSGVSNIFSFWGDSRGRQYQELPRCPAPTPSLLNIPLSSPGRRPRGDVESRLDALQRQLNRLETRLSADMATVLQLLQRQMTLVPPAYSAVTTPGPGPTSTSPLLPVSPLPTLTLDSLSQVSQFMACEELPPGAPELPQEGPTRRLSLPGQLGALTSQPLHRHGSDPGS
row,Compound,"hERG current change (%, negative = inhibition) at 10uM [%]"
1,CC(C)(C)OC(=O)NOCC(=O)N(Cc1ccccc1)CC(O)COc1ccccc1 (stereo not shown),-0.0122
2,O=C(CNC(=O)c1ccccc1F)N/N=C\C=C\c1ccccc1,3.76
3,N#Cc1ccc(NC(=O)Cn2cnc(S(=O)(=O)N3CCCCC3)c2)cc1,13.3
4,C=CCNc1nc(Cl)nc(Nc2ccc([N+](=O)[O-])cc2)n1,6.9
5,COc1ccc([N+](=O)[O-])c(OC)c1C(=O)NC(=O)Nc1c(C)cccc1C,5.84
6,CCOc1ccccc1NS(=O)(=O)c1ccc2[nH]c(=O)[nH]c2c1,14.9
7,Cc1coc2c(C)c3oc(=O)cc(-c4ccccc4)c3cc12,9.59
8,O=C(N/N=C/c1c[nH]c2ccccc12)c1ccccc1,18.8
9,C=CCSc1nnc2c(n1)-c1cccc3cccc-2c13,1.84
10,COc1cccc2cc(C(=O)C3=C(O)C(=O)N(CCN4CCOCC4)C3c3cccc(Cl)c3)oc12 (stereo not shown),16.4
11,O=C(NCCc1ccccc1)c1ccccc1NC(=O)C1CCCCC1C(=O)O (stereo not shown),2.78
12,COc1ccc(-n2c(SCc3ccc([N+](=O)[O-])cc3)nnc2-c2ccc(C)cc2)cc1,1.03
13,CCN(CC(=O)NCCc1ccccc1)S(=O)(=O)c1ccc(Br)cc1,-32.3
14,COc1ccc(OC)c(CC(=O)O)c1,10.8
15,CCOc1ccc(NC(=O)CSc2nc3ccsc3c(=O)n2CCC(=O)O)cc1,0.362
16,CCOc1ccc(N2C(=O)CC(Sc3nc(CC(C)C)ccc3C#N)C2=O)cc1 (stereo not shown),16.6
17,COc1cccc(NC(=O)CN(C)C(=O)CCNS(=O)(=O)c2ccc(C)cc2)c1,-4.63
18,C=CCN1C(=O)C(C)(C)Nc2ccccc21,6.7
19,O=C1CCC(=O)N1CC1CC2CCC1C2 (stereo not shown),8.48
20,COc1ccc(S(=O)(=O)NCC(c2ccco2)N2CCc3ccccc32)cc1 (stereo not shown),-24.3
21,CCOC(=O)NC(=O)CN1C(=O)NC2(CCc3ccccc32)C1=O (stereo not shown),20.8
22,CC(C)(C)C(=O)COC(=O)c1cc(-c2ccncc2)nc2ccccc12,-8.43
23,COCC1=C(C(=O)OC)C(c2cccs2)n2ncnc2N1 (stereo not shown),12.2
24,COc1cc(NC(=O)C2CCCN2S(=O)(=O)c2ccc3c(c2)CC(C)N3C(C)=O)cc(OC)c1 (stereo not shown),-47.9
25,CC(C)(CNC(=O)c1ccc(NS(=O)(=O)c2ccc(F)cc2)cc1)N1CCOCC1,-0.466
26,C=CCN(c1ccccc1Cl)S(=O)(=O)c1cccc(C(=O)NCCc2ccc(OC)cc2)c1,3.82
27,Cc1nc2ccc(NC(=O)N3CCC(c4ccccc4)C3)cc2nc1C (stereo not shown),-11.4
28,O=C(NCc1nnc2c(C(F)(F)F)cc(Cl)cn12)c1cccs1,-5.07

row,Compound,"hERG current change (%, negative = inhibition) at 10uM [%]"
1,O=C(c1ccc(Oc2ccc([N+](=O)[O-])cc2Cl)cc1)N1CCCC1,-32.2
2,CCOc1cc(/C=N/NC(=O)CN2CCCCC2)ccc1O,-5.51
3,Cc1noc(NS(=O)(=O)c2ccc(NC(=O)CCN3C(=O)c4ccccc4C3=O)cc2)c1C,10.6
4,COc1ccc(CNC2CCN(Cc3ccccc3)CC2)cc1,-54.2
5,CCOC(=O)C1=C(C)NC2=C(C(=O)C(C(=O)OCC)C(c3ccc(OC)cc3)C2)C1c1ccccn1 (stereo not shown),12.8
6,COc1ccc(C)cc1NC(=O)C/C(C)=N/NC(=O)Cc1cccc2ccccc12,7.97
7,CCOc1ccc(C(=O)c2cc([N+](=O)[O-])ccc2Cl)cc1,-15.6
8,COc1ccc(-n2c(COc3cccc(C)c3)nnc2SCC(=O)O)cc1,20.7
9,CCNC(=S)NCc1ccc(F)cc1,5.03
10,COc1ccccc1CNC(=O)COC(=O)Cc1ccc(Cl)cc1,8.51
11,O=C(NC1CCS(=O)(=O)C1)c1cn(-c2ccccc2)nc1-c1ccccc1 (stereo not shown),-4.04
12,CCc1nnc(NC(=O)c2ccc(COc3ccccc3Cl)o2)s1,20.3
13,COc1ccccc1OCCOc1ccc(/C=C2/C(=N)N3OC(C)=CC3=NC2=O)cc1OC,-12.5
14,Cc1ccc(CC(NC(=O)c2ccccc2)C(=O)NC(CC(C)C)C(=O)O)cc1 (stereo not shown) (Bz-[Phe(4-Me)]-Leu-OH; configuration not given here),16.7
15,CCN1CCN(CCCNC(=O)C2CCN(c3nnc(-n4cccc4)s3)CC2)CC1,-3.56
16,COCc1nnc(NC(=O)CCc2ccc(OC)cc2)s1,20.3
17,O=C(CSc1nc2ccccc2s1)NCCOc1ccc(Cl)cc1,-3.32
18,COc1ccc(CC(=O)Nc2ccc(C)cc2O)cc1S(=O)(=O)N1CCOCC1,2.52
19,O=C([O-])c1ncc(Cl)c(Cl)c1Cl.[NH4+],16.2
20,O=C(COc1ccc2c3c(c(=O)oc2c1)CCC3)NCCCN1CCOCC1,12.1
21,COCCn1c(N)c(NCc2ccccc2)c(=O)[nH]c1=O,17
22,CSCCC(NC(=O)c1ccccc1Cl)C(=O)NCc1ccncc1 (stereo not shown),10.1
23,COc1ccc(OCCCC(=O)Nc2ccc(OC)c(S(=O)(=O)N3CCOCC3)c2)cc1,-30.5
24,CCCc1cc(=O)oc2cc(OCC(=O)Nc3ccccn3)ccc12,-7.98
25,O=C(/C=C/c1c(F)cccc1Cl)Nc1nc2ccccc2[nH]1,10.8
26,O=C(NCCc1cccc(C(F)(F)F)c1)C1CCC(=O)N(Cc2ccc(Cl)cc2)C1 (stereo not shown),-59
27,O=C(NCC1CCCO1)Nc1ccc(Cl)cc1 (stereo not shown),-11.5
